Reference: the supplement of paper PMC8728848
Some of the results follow.

Legend:
Test in all cases: glycan array binding signal (z-score within array); higher = stronger binding
Conditions in all cases: glycan notation: IUPAC condensed, linker removed
[1] = molecular target: GlcNAc(b1-4)GlcNAc(b1-4)GlcNAc
How it was run: (§1)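 Glycan array data were curated from 3228 arrays in the Consortium for Functional Glycomics database and kept only where the protein sequence was available. Glycan names were converted to IUPAC-condensed notation, and columns mapping to the same glycan were averaged. The binding signal is a within-array Z-score, averaged across arrays of the same protein sequence at different concentrations or buffers and across linkers. Negative Z-scores can be read as non-binding.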

[2] = molecular target: GlcNAc(b1-4)GlcNAc(b1-4)GlcNAc(b1-4)GlcNAc
How it was run: as §1

[3] = molecular target: GlcNAc(b1-4)GlcNAc(b1-4)GlcNAc(b1-4)GlcNAc(b1-4)GlcNAc
How it was run: as §1

[4] = molecular target: GlcNAc(b1-4)GlcNAc(b1-4)GlcNAc(b1-4)GlcNAc(b1-4)GlcNAc(b1-4)GlcNAc
How it was run: as §1

[5] = molecular target: GlcNAc(b1-4)GlcNAc(b1-4)GlcNAc(b1-4)GlcNAc(b1-4)GlcNAc(b1-4)GlcNAc(b1-4)GlcNAc
How it was run: as §1

[6] = molecular target: GlcNAc(b1-4)GlcNAc(b1-4)GlcNAc(b1-4)GlcNAc(b1-4)GlcNAc(b1-4)GlcNAc(b1-4)GlcNAc(b1-4)GlcNAc
How it was run: as §1

[7] = molecular target: HexA(a1-3)GalNAc4S(b1-4)GlcA(b1-3)GalNAc4S
How it was run: as §1

[8] = molecular target: HexA(a1-3)GalNAc4S(b1-4)GlcA(b1-3)GalNAc4S(b1-4)GlcA(b1-3)GalNAc4S(b1-4)GlcA(b1-3)GalNAc4S(b1-4)GlcA(b1-3)GalNAc4S(b1-4)GlcA(b1-3)GalNAc4S(b1-4)GlcA(b1-3)GalNAc4S
How it was run: as §1

[9] = molecular target: HexA(a1-3)GalNAc4S(b1-4)IdoA(a1-3)GalNAc4S
How it was run: as §1

[10] = molecular target: HexA(a1-3)GalNAc4S(b1-4)IdoA(a1-3)GalNAc4S(b1-4)IdoA(a1-3)GalNAc4S(b1-4)IdoA(a1-3)GalNAc4S(b1-4)IdoA(a1-3)GalNAc4S(b1-4)IdoA(a1-3)GalNAc4S(b1-4)IdoA(a1-3)GalNAc4S
How it was run: as §1

[11] = molecular target: HexA(a1-3)GalNAc6S(b1-4)GlcA(b1-3)GalNAc6S
How it was run: as §1

[12] = molecular target: HexA(a1-3)GalNAc6S(b1-4)GlcA(b1-3)GalNAc6S(b1-4)GlcA(b1-3)GalNAc6S(b1-4)GlcA(b1-3)GalNAc6S(b1-4)GlcA(b1-3)GalNAc6S(b1-4)GlcA(b1-3)GalNAc6S(b1-4)GlcA(b1-3)GalNAc6S
How it was run: as §1

HexA2S(a1-4)GlcNS6S = molecular target: HexA2S(a1-4)GlcNS6S
How it was run: as §1

[13] = molecular target: HexA6S(a1-4)GlcNS6S(a1-4)IdoA2S(a1-4)GlcNS6S
How it was run: as §1

[14] = molecular target: HexA6S(a1-4)GlcNS6S(a1-4)IdoA2S(a1-4)GlcNS6S(a1-4)IdoA2S(a1-4)GlcNS6S(a1-4)IdoA2S(a1-4)GlcNS6S(a1-4)IdoA2S(a1-4)GlcNS6S(a1-4)IdoA2S(a1-4)GlcNS6S(a1-4)IdoA2S(a1-4)GlcNS6S
How it was run: as §1

[15] = molecular target: Kdn(a2-3)Gal(b1-3)GalNAc(b1-4)[Kdn(a2-3)]Gal(b1-4)Glc
How it was run: as §1

[16] = molecular target: Kdn(a2-3)Gal(b1-3)GlcNAc(b1-3)Gal(b1-4)Glc
How it was run: as §1

Kdn(a2-3)Gal(b1-4)Glc = molecular target: Kdn(a2-3)Gal(b1-4)Glc
How it was run: as §1

[17] = molecular target: Kdn(a2-3)Gal(b1-4)[Fuc(a1-3)]GlcNAc(b1-3)Gal
How it was run: as §1

[18] = molecular target: Kdn(a2-3)Gal(b1-4)[Fuc(a1-3)]GlcNAc(b1-3)Gal(b1-4)Glc
How it was run: as §1

[19] = molecular target: Kdn(a2-3)Gal(b1-4)[Rha(a1-3)]GlcNAc(b1-3)Gal(b1-4)Glc
How it was run: as §1

[20] = molecular target: Kdn(a2-3)[GalNAc(b1-4)]Gal(b1-4)Glc
How it was run: as §1

Kdn(a2-6)Gal = molecular target: Kdn(a2-6)Gal
How it was run: as §1

Man(a1-2)Man = molecular target: Man(a1-2)Man
How it was run: as §1

[21] = molecular target: Man(a1-2)Man(a1-2)Man(a1-3)[Man(a1-2)Man(a1-3)[Man(a1-2)Man(a1-6)]Man(a1-6)]Man(b1-4)GlcNAc(b1-4)GlcNAc
How it was run: as §1

[22] = molecular target: Man(a1-2)Man(a1-2)Man(a1-3)[Man(a1-2)Man(a1-6)[Man(a1-3)]Man(a1-6)]Man(b1-4)GlcNAc(b1-4)GlcNAc
How it was run: as §1

[23] = molecular target: Man(a1-2)Man(a1-2)Man(a1-3)[Man(a1-3)[Man(a1-6)]Man(a1-6)]Man(b1-4)GlcNAc(b1-4)GlcNAc
How it was run: as §1

[24] = molecular target: Man(a1-2)Man(a1-3)[Man(a1-2)Man(a1-6)[Man(a1-3)]Man(a1-6)]Man(b1-4)GlcNAc(b1-4)GlcNAc
How it was run: as §1

[25] = molecular target: Man(a1-2)Man(a1-3)[Man(a1-3)[Man(a1-6)]Man(a1-6)]Man(b1-4)GlcNAc(b1-4)GlcNAc
How it was run: as §1

Man(a1-3)Man = molecular target: Man(a1-3)Man
How it was run: as §1

[26] = molecular target: Man(a1-3)Man(a1-6)[Man(a1-3)]Man(b1-4)GlcNAc(b1-4)GlcNAc
How it was run: as §1

Man(a1-3)Man(b1-4)GlcNAc = molecular target: Man(a1-3)Man(b1-4)GlcNAc
How it was run: as §1

Man(a1-3)[Man(a1-6)]Man = molecular target: Man(a1-3)[Man(a1-6)]Man
How it was run: as §1

[27] = molecular target: Man(a1-3)[Man(a1-6)]Man(a1-6)Man(b1-4)GlcNAc(b1-4)GlcNAc
How it was run: as §1

[28] = molecular target: Man(a1-3)[Man(a1-6)]Man(a1-6)[Man(a1-3)]Man
How it was run: as §1

[29] = molecular target: Man(a1-3)[Man(a1-6)]Man(a1-6)[Man(a1-3)]Man(b1-4)GlcNAc(b1-4)GlcNAc
How it was run: as §1

[30] = molecular target: Man(a1-3)[Man(a1-6)]Man(b1-4)GlcNAc(b1-4)GlcNAc
How it was run: as §1

[31] = molecular target: Man(a1-3)[Man(a1-6)]Man(b1-4)GlcNAc(b1-4)[Fuc(a1-6)]GlcNAc
How it was run: as §1

Man(a1-6)Man = molecular target: Man(a1-6)Man
How it was run: as §1

[32] = molecular target: Man(a1-6)Man(b1-4)GlcNAc(b1-4)GlcNAc
How it was run: as §1

Man(b1-4)GlcNAc = molecular target: Man(b1-4)GlcNAc
How it was run: as §1

[33] = molecular target: Man(b1-4)Man(b1-4)Man(b1-4)Man
How it was run: as §1

[34] = molecular target: Man(b1-4)Man(b1-4)Man(b1-4)Man(b1-4)Man
How it was run: as §1

[35] = molecular target: Man(b1-4)Man(b1-4)Man(b1-4)Man(b1-4)Man(b1-4)Man
How it was run: as §1

[36] = molecular target: Man6P(a1-3)Man(a1-3)Man(a1-3)Man(a1-2)Man
How it was run: as §1

Measured: glycan array binding signal (z-score)

B1: HysACBM (Streptococcus pneumoniae), Q54873 (protein)
chain: KNLVENGDFGQTEDGSSPWTGSKAQGWSAWVDQKNSADASTRVIEAKDGAITISSHEKLRAALHRMVPIEAKKKYKLRFKIKTDNKIGIAKVRIIEESGKDKRLWNSATTSGTKDWQTIEADYSPTLDVDKIKLELFYETGTGTVSFKDIELVEVADQLS
0.103: [33]
-0.078: [22] | Man(a1-3)[Man(a1-6)]Man
0.1: [2]
-0.002: [28]
-0.089: [1]
0.069: [36]
-0.005: Kdn(a2-3)Gal(b1-4)Glc
0.105: [11]
0.017: [3]
0.152: Man(a1-6)Man
-0.062: Man(a1-2)Man
-0.091: all other assays above
